The campaign covered roughly 350,000 compounds. About 9,900 (2.8%) were called active. Inconclusive means that the source gave no clear call. Such entries were picked first, then a sample of the others. Calls follow the shape of the dose curve; as a rule, active = well fitted activation curve with a large enough effect; inconclusive = small, poorly fitted or top-dose-only effect; inactive = no such curve, though single readings can be large or run the other way. No potency is given beside an inconclusive call; the fits are too rough.
assay: A quantitative high throughput screen for small molecules that induce DNA re-replication in MCF 10a normal breast cells.; also: nearly all actives have a fitted effect of over 50% in size; as to activity, positive = re-replication: % of control where 0% means no effect; settings: MCF 10A DNA re-replication, Hoechst nuclear intensity, 48 h; activity, positive = re-replication: at 46.1 µM (top of the series)
Potency is read from the fitted curve at half-maximal effect; tags tell the direction and shape of the fitted curve.

| SMILES | Potency | activity, positive = re-replication |
| --- | --- | --- |
| C=CCN1C(C(=O)c2ccccc2)=C(OC(=O)COc2ccccc2)c2ccccc2S1(=O)=O | inconclusive [activator, single point] | – |
| CC1CCN(c2ccccc2NC(=S)NC(=O)c2ccco2)CC1 | active: 18.4 µM | – |
| Cc1ccc(NC(=O)CN2C(=O)S/C(=C/c3ccc(-c4cc(C(=O)O)ccc4C)o3)C2=O)cc1C | active: 5.8 µM | – |
| Cc1cc(C(C)(C)C)cc(C)c1COC(=O)c1cccnc1 | inconclusive [activator, single point] | – |
| CC1=NN(C(N)=S)C(=O)C1N=Nc1c(Br)cc(Br)cc1Br (stereo not given) | inconclusive [activator, partial curve, poor fit] | – |
| Clc1ccc2c(N/N=C/c3ccccc3Br)ccnc2c1 | inconclusive [activator, full curve] | – |
| C=CCNC(=O)c1ccc([N+](=O)[O-])c(Cl)c1 | – | inactive: 26.8% |
| CCOc1ccccc1N(C(=O)CNC(=O)c1ccco1)C(C(=O)NC1CCCC1)c1ccncc1 (stereo not given) | – | inactive: 7.57% |
| O=C(Nc1ccc(/C=C/c2nc3ccccc3o2)cc1)c1cccc(C(F)(F)F)c1 | inconclusive [activator, single point] | – |
| S=c1[nH]nc(-c2ccccn2)n1/N=C/c1cccc2ccccc12 | – | inactive: 0.052% |
| CCOC(=O)/C=c1\s/c(=C\c2ccccc2OC)c(=O)n1CC(=O)N1CCOCC1 | – | inactive: 1.44% |
| CN(C)S(=O)(=O)c1cccc(CNCC2COc3ccccc3O2)c1 (stereo not given) | – | inactive: 5.94% |
| CC1CCN(C(=O)COC(=O)/C=C/c2ccco2)CC1 | – | inactive: -5.21% |
| Cc1ccc(S(=O)(=O)Nc2ccc3nc(C)sc3c2)c(C)c1 | inconclusive [activator, partial curve, poor fit] | – |
| CC(C)(C)c1ccc(Cc2n[nH]c(=S)[nH]c2=O)cc1 | inconclusive [activator, single point] | – |
| Clc1ccccc1CSc1cc2c(nn1)-c1ccccc1CC2 | inconclusive [activator, partial curve] | – |
| CCOC(=O)c1c(NC(=O)C(NCCN(C)C)c2ccccc2)sc2c1CCCC2 (stereo not given) | active: 18.4 µM | – |
| Cc1nc(SCc2nc3ccc(Br)cc3[nH]2)c2oc3ccccc3c2n1 | inconclusive [activator, single point] | – |
| Oc1ccccc1Nc1ccccn1 | inconclusive [activator, partial curve, poor fit] | – |
| O=[N+]([O-])c1ccc(-n2nnnc2-c2ccccc2)c([N+](=O)[O-])c1 | active: 4.11 µM | – |
| CCCCNC(=S)NCC(c1ccccc1)c1c[nH]c2ccccc12 (stereo not given) | inconclusive [activator, single point] | – |
| CCC(O)(CC)C(=O)N/N=C/c1cc(Br)cc(Br)c1O | inconclusive [activator, partial curve] | – |
| C/C(=N/OC(=O)c1ccccc1Br)c1ccc(C)cc1 | inconclusive [activator, partial curve, poor fit] | – |
| CCc1ccc(-c2nc(CS(=O)CC(=O)NC3CC3)c(C)o2)cc1 (stereo not given) | – | inactive: 0.832% |

| SMILES | Potency | activity, positive = re-replication |
| --- | --- | --- |
| CCCCOc1cccc(C(=O)Nc2ccc(N3CCN(CC)CC3)cc2)c1 | inconclusive [activator, partial curve] | – |
| Cc1ccc(COc2ccc(/C=N/O)cc2)cc1 | inconclusive [activator, single point] | – |
| O=C(Cc1cccs1)NNC(=S)NC(=O)c1ccccc1 | inconclusive [activator, single point] | – |
| Cc1ccccc1Nc1nnc(SCC(=O)c2ccc(O)cc2O)s1 | inconclusive [activator, single point] | – |
| CN(Cc1ccccc1)C1=CC(=[N+]2CCCCC2)CC(C)(C)C1 | inconclusive [activator, full curve, poor fit] | – |
| COc1ccc(C(C(=O)NC2CCCC2)N(Cc2ccco2)C(=O)c2snc(C(N)=O)c2N)cc1OC (stereo not given) | – | inactive: -0.224% |
| CC(C)(C)C(=O)NC(=S)NNC(=O)c1ccc(-c2ccccc2)cc1 | inconclusive [activator, partial curve, poor fit] | – |
| COc1ccc(C2=NN(C(C#N)c3ccc(OC)cc3)C(c3ccccc3)C2)cc1 (stereo not given) | inconclusive [activator, single point] | – |
| Cn1c(=O)cc(SCC(=O)N2CCN(C3CCCCC3)CC2)c2ccccc21 | inconclusive [activator, partial curve] | – |
| Cc1cc(=O)oc2cc(OCC(=O)N/N=C/c3ccccc3[N+](=O)[O-])ccc12 | inconclusive [activator, single point] | – |
| CCOC(=O)CCS(=O)(=O)c1ccc(-c2ccc(S(=O)(=O)CCC(=O)OCC)cc2)cc1 | – | inactive: -5.91% |
| CCOc1cc(/C=C2/C(=N)N3N=C(C)SC3=NC2=O)ccc1OS(=O)(=O)c1ccc(C)cc1 | inconclusive [activator, single point] | – |
| CCCCC[C@H]1CN(Cc2ccccc2)C(=O)[C@@H]1CC(=O)NCc1ccccc1 | inconclusive [activator, partial curve, poor fit] | – |
| Cc1ccccc1OCC(=O)Nc1ccccc1N1CCOCC1 | inconclusive [activator, full curve] | – |
| C1=C(CCNC2=NCCCCC2)CCCC1 | inconclusive [activator, single point] | – |
| COc1cc(/C=C2\C(=O)ON=C2c2ccccc2)cc(Br)c1O | inconclusive [activator, full curve] | – |
| CC(C)CC[n+]1ccn(-c2nc3ccccc3nc2[N-]S(=O)(=O)c2ccc(Cl)cc2)c1 | active: 23.1 µM | – |
| Cc1ccc(CCn2c3c(c4ccccc42)CN(C)CC3)cn1 | inconclusive [activator, single point] | – |
| CC(C)Cn1c(-c2cccs2)nc2ccccc21 | – | inactive: 8.68% |
| CCN(CC)S(=O)(=O)c1cccc(NC(=O)c2cccc(S(=O)(=O)N3CCCC3)c2)c1 | inconclusive [activator, partial curve, poor fit] | – |
| Cc1c(O)ccc2c(-c3ccccc3)cc(=O)oc12 | inconclusive [activator, single point] | – |
| Cc1nn2c(N3CCCC3)cc(C(C)C)nc2c1-c1ccccc1 | inconclusive [activator, single point] | – |
| O=C1NC(c2ccc3c(c2)OCO3)Nc2ccccc21 (stereo not given) | inconclusive [activator, single point] | – |
| CC1=NN(c2nc(-c3ccc(C)cc3)cs2)C(=O)C1N=Nc1ccccc1O (stereo not given) | inconclusive [activator, full curve, poor fit] | – |

| SMILES | Potency | activity, positive = re-replication |
| --- | --- | --- |
| O=C(c1ccccc1)N1CCN(c2ccc(Cl)cc2)CC1 | inconclusive [activator, single point] | – |
| CCOc1ccc(C(=O)COC(=O)c2c(-c3ccccc3)noc2C)cc1 | active: 6.51 µM | – |
| COc1cc(NC(=O)C(C)Oc2ccccc2)c(OC)cc1NC(=O)c1ccccc1 (stereo not given) | – | inactive: 29.7% |
| CCN(CC)S(=O)(=O)c1ccc(N2CCN(CCOc3ccc(OC)cc3)CC2)nc1 | inconclusive [activator, single point] | – |
| COc1cc2c(cc1NC(=O)CSc1nnc(Cc3cccs3)n1C)oc1ccccc12 | – | inactive: 2.14% |
| COC(=O)/N=C(/Cc1ccc(OC)cc1)c1ccc(OC)cc1 | inconclusive [activator, single point] | – |
| Cc1nc(Cl)c2oc3ccccc3c2n1 | inconclusive [activator, single point] | – |
| CCOc1cc(-c2c(C#N)c(N)nc3c2CCCC3C)ccc1O (stereo not given) | inconclusive [activator, single point] | – |
| Clc1ccc(C2=CSC3=NCCN23)c(Cl)c1 | – | inactive: 9.39% |
| CCCCOc1ccc(/C=C/C2=CC(C)(C)NC(=S)N2)cc1OCC | inconclusive [activator, single point] | – |
| CCCCNC(=O)C(=O)N/N=C/c1ccc(OCC(=O)Nc2cccc(OC)c2)c(OC)c1 | inconclusive [activator, single point] | – |
| O=C(Cc1cccs1)N(c1ccc(Br)cc1)C1C=CS(=O)(=O)C1 (stereo not given) | – | inactive: 13.4% |
| CCOc1ccc(/C=C2\SC(=O)N(CCNC(=O)C3COc4ccccc4O3)C2=O)cc1OC (stereo not given) | inconclusive [activator, single point] | – |
| COc1cccc(OC)c1OCCCOc1c(OC)cccc1OC | – | inactive: 1.67% |
| O=C1c2ccc(Br)cc2C(=O)N1c1ccc(Cc2ccncc2)cc1 | – | inactive: 1.27% |
| O/N=C\c1ccc2noc(-c3ccc(Cl)cc3)c2c1 | inconclusive [activator, partial curve, poor fit] | – |
| Cc1cc(C#N)c(SCC(N)=O)nc1-c1ccc(F)cc1 | inconclusive [activator, partial curve, poor fit] | – |
| Cc1ccc(S(=O)(=O)C(C#N)c2nc3ccccc3nc2OCCO)cc1 (stereo not given) | inconclusive [activator, single point] | – |
| Cc1cc(C)c(C#N)c(OCC(=O)c2ccc(Br)cc2)n1 | inconclusive [activator, single point] | – |
| Cn1nc(C(=O)NC(C)(C)C)c2ccccc21 | – | inactive: -25% |
| CC(C)CCOc1ccc(NC(=O)C2OC3OC(C)(C)OC3C3OC(C)(C)OC23)cc1 (stereo not given) | – | inactive: 3.65% |
| Nn1c(SCC(=O)Nc2cc(S(=O)(=O)N3CCOCC3)ccc2Cl)nnc1-c1cccnc1 | – | inactive: -1.43% |
